{"source": "paper PMC6274998", "about": "(2018)", "binders": {"B1": {"name": "ClpC1 (protein)", "chain": "not shown"}}, "target": "T1, ClpS (Mycobacterium tuberculosis, UniProt A5U231)", "T1 chain": "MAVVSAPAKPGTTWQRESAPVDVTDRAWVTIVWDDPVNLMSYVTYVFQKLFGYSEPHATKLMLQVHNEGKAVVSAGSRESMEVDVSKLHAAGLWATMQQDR", "data": [{"binder": "B1", "values": [{"measurement": "Kd", "result": "~325", "unit": "nM"}]}]}
